About 14,000 (4.5%) of roughly 310,000 compounds showed an effect of 50% or more. The effect is printed as a negative number. The list shows a part of the results.
target: human ether-à-go-go-related gene (hERG) potassium channel (human, UniProt Q12809); assay: primary screen, population patch clamp on CHO cells stably expressing hERG
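Note: peak tail current of the secondary pulse compared with the same well before compound.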

Sequence of human ether-à-go-go-related gene (hERG) potassium channel (Q12809 whole entry, looked up): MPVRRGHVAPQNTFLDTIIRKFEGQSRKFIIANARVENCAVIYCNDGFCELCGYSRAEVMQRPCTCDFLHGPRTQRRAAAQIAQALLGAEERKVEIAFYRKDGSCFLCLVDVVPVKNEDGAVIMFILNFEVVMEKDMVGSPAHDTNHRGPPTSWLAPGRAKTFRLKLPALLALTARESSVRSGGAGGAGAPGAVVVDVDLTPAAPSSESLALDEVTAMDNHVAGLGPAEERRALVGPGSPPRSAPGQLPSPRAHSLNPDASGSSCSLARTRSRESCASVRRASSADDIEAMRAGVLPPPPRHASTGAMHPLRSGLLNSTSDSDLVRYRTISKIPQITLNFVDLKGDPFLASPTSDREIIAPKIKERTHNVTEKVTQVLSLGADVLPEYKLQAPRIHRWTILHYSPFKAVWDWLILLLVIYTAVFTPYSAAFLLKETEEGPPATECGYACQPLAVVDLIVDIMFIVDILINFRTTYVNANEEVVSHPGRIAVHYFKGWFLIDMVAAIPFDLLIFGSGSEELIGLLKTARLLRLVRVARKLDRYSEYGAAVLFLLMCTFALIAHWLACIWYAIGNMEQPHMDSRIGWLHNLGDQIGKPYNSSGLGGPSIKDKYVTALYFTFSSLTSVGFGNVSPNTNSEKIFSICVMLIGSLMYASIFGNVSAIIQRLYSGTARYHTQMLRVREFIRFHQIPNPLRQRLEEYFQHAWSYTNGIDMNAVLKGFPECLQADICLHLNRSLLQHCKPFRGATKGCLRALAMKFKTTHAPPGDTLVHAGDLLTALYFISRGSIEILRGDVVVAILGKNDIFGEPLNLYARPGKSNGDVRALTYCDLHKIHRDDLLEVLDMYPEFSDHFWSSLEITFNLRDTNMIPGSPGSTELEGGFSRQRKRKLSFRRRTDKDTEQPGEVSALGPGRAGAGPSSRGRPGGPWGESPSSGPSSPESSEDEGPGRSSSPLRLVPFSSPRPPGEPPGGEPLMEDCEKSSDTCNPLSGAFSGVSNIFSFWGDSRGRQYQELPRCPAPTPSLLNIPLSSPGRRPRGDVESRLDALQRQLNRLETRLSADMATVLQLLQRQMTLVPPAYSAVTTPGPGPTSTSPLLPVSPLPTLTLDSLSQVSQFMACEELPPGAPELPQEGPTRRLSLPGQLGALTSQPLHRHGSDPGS

SMILES	hERG current change (%, negative = inhibition) at 10uM [%]
COc1ccc(Sc2nc(-c3ccccc3)ncc2OC)cc1	41.5
O=C(CNC(=O)c1ccc(Br)cc1)NCC(=O)OCC(=O)c1ccccc1	9.85
CC(C)(C)C(=O)C(Oc1cccc2nonc12)n1cncn1 (centres unmarked)	-21.7
CC(C)(C)c1ccc(C(=O)c2c[nH]c(C(=O)NCc3cccs3)c2)cc1	22.4
CC1CCC(NC(=O)c2cc3c(=O)n(C)c4ccccc4c3n2C)CC1 (centres unmarked)	-13.9
Cc1ccc(Cl)cc1NC(=O)c1ccccc1OCC(=O)N1CCOCC1	-63.6
Cc1ccc(N=CC2=C(O)CC(c3cccc(Cl)c3)CC2=O)cc1 (centres unmarked)	0.836
c1ccc(N2CCOCC2)c(Nc2nc3ccccc3n3cnnc23)c1	-2.53
CCOc1ccc(NC(=S)NN2CCN(C)CC2)cc1	7.15
Cc1ccc(S(=O)(=O)N2CCOCC2)cc1C(=O)c1nccn1C	5.59
COc1ccccc1CCC(=O)Nc1nccs1	20.1
O=C(CCc1nc2ccccc2c(=O)[nH]1)NNC(=O)COc1ccccc1Cl	4.24
Cn1c(=O)c2c(ncn2CC(=O)OCC(=O)c2ccc(Cl)cc2)n(C)c1=O	-2.98
Cc1ccc(S(=O)(=O)N2CCC(CN3C(=O)c4cccc5cccc(c45)C3=O)CC2)cc1	11.3
CC(C)N(Cc1cc2ccccc2[nH]c1=O)C(=O)c1ccco1	13
CCSc1nnc2ccc(-c3ccco3)nn12	3.55
O=C(Nc1ccc(OC(F)F)cc1)c1cc(S(=O)(=O)N2CCOCC2)ccc1F	-31.3
COc1ccc(-c2ccc(C#N)c(SCC(=O)Nc3sc4c(c3C#N)CCC4)n2)cc1	9.7
CCc1c(C)nc(SCC(=O)NNC(=O)c2ccco2)[nH]c1=O	7.22
Cc1sc2nc(SCC(=O)NCCOCCO)nc(N)c2c1C	20.5
O=C(c1ccco1)N1CCN(c2nnc(-c3ccccc3)c3ccccc23)CC1	-75.8
Cc1cccc(CSc2nnc(-c3cnccn3)n2C)c1	2.52

SMILES	hERG current change (%, negative = inhibition) at 10uM [%]
Cc1ccc(Cl)cc1N1CCN(C(=O)CSc2nnc3n2C(C)(C)Cc2ccccc2-3)CC1	-39
CN(C)c1ccc(C(=O)c2ccc(N(C)C)cc2)cc1	-20.5
COc1ccc(/C=C/C(=O)OCn2c(SC)nnc(C)c2=O)cc1OC	-18.1
Cc1ccc2oc(C(=O)N3CCC(N4CCSCC4)CC3)c(C)c2c1	-30.6
Cc1ccccc1OCCNC(=S)Nc1ccccc1	15.6
COc1cccc(C(=O)NC2CCN(CC(=O)Nc3nccs3)CC2)c1	1.18
Cc1ccc2nsnc2c1NC(=O)COc1ccccc1	11.3
COc1cccc2c(=O)c3c(cnn3C)n(C)c12	8.81
Oc1ccc(-c2csc(-c3c[nH]c4ccccc34)n2)c(O)c1	5.01
O=C(Nc1ccc(CN2CCOCC2)cc1)c1ccc(F)cc1	-16.8
COc1ccc(NC(=O)/C=C/c2ccccc2)c([N+](=O)[O-])c1	4.69
COc1cccc(CNC(=O)CCCc2cn(C)c3ccccc23)c1	-17.4
O=C(COc1ccc(-c2ccccc2)cc1)N1CCN(C(=O)c2cccnc2)CC1	-57.9
N/C(=N/[N+](=O)[O-])N1CCN(C(=O)Oc2ccc([N+](=O)[O-])cc2)CC1	-36.5
CCn1c(NC(=O)c2ccc(F)cc2)c2ccccc2nc1=O	-11.7
Cc1ccccc1-n1cc[nH]c1=S	31.8
CCOc1ccc(S(=O)(=O)NCCC(=O)NCC2COc3ccccc3O2)cc1 (centres unmarked)	-29.5
c1ccc(CSc2nnc(-c3ccco3)n2Cc2ccco2)cc1	-34.6
Brc1cccc(/C=N/Nc2nc(N3CCCCC3)nc(N3CCCCC3)n2)c1	19
CC1=N/C(=C/c2cc(Br)cc(Br)c2O)C(=O)O1	17
O=C(CCc1ccccc1)NCc1ccccc1	-8.04
COc1cccc(N2CCN(CC(=O)Nc3nnc(-c4ccccc4)s3)CC2)c1	-19.1
